In patent publication US20240271082A1 (FZATA, published 2024):

B1: Anti-human TNF-α-VHH-Fc, A3 (Anti-hTNF-α-Fc) (Fc fusion)
chain: EVQLLESGGGLVQPGGSLRLSCAASGRTFSTYAMGWFRQAPGKEREFVATVDNDGFTMHADSVKGRFTISRDNSKNTLYLQMNSLRAEDTAVYYCAAGQYSKFVESYAYWGQGTLVTVSS[human IgG1 Fc not written out]
notes: The tie is indirect
B2: FZ008_ahTNF-α-ahIL17A-Fc (VHH1-VHH2-Fc bi-specific antibody) (bispecific antibody, human IgG1)
chain: EVQLLESGGGLVQPGGSLRLSCAASGRTFSTYAMGWFRQAPGKEREFVATVDNDGFTMHADSVKGRFTISRDNSKNTLYLQMNSLRAEDTAVYYCAAGQYSKFVESYAYWGQGTLVTVSSGQAGQGGGGSGGGGSGGGGSLQQVQLVQSGGGLVQAGGSLRLSCAASGGTFATSPMGWLRQAPGKGTEFVAAISPSGGDRIYADSVKGRFTISRDNAGYFIYLQMNSLKPEDTAVYYCAVRRRFDGTSYYTGDYDSWGQGTLVTVSS[human IgG1 Fc not written out]
notes: Tested as yeast culture supernatant; also called VHH-VHH-Fc; FIC5

Tests used:
human TNF-α [1] = target: T1, human TNF-α (human, UniProt P01375 part only); assay: specific binding EC50 compared with Humira
T1 construct: also called hTNF-α; hTNFα

human TNF-α [2] = target: T1, human TNF-α; assay: cell-based or functional assay
human TNF-α [3] = target: T1, human TNF-α; assay: specific binding EC50; method not given
human IL-17A = target: T2, human IL-17A (human, UniProt Q16552 24-155); assay: specific binding activity of yeast supernatant (FIG. 149)
T2 construct: also called hIL-17A; hIL-17

human TNF-α [4] = target: T1, human TNF-α; assay: as above

T1 sequence (P01375 77-233 limits assumed): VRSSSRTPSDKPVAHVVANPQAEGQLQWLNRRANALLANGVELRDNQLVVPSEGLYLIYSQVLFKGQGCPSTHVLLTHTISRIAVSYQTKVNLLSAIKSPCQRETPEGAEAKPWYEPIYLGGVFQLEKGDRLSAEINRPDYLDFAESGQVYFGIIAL
Sequence of human IL-17A (Q16552 24-155 limits assumed): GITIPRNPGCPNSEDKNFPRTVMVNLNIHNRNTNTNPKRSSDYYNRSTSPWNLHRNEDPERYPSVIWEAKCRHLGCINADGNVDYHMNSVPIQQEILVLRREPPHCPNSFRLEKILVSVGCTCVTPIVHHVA

Binder	fold lower EC50 than Humira (human TNF-α [1]) [fold]	IC50, neutralizing activity (human TNF-α [2]) [pM]	EC50 (human TNF-α [3]) [pM]	binding result (human IL-17A)	binding result (human TNF-α [4])
B1	~3	7	141	–	–
B2	–	–	–	binds	binds
